The values that follow come from the BET-seq Pho4 binding data (Le et al. 2018).

Some of the results follow. The energies were worked out here from pooled read counts, against the library average; single values are noisy.

For this assay, the target named is T1, Pho4 (S. cerevisiae) (UniProt P07270).
T1 sequence: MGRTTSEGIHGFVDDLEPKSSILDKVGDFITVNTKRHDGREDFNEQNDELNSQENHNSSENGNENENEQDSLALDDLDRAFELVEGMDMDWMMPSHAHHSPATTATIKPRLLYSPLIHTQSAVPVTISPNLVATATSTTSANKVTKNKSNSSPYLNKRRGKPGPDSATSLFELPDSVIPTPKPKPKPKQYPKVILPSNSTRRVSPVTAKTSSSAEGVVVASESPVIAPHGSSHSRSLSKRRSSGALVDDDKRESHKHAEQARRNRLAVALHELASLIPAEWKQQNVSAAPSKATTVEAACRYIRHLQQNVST
The assay is described as follows: relative binding free energy (BET-seq); higher = weaker binding. The conditions noted are these: reference: library average.
GTAAGCACGTGACTTT: the “relative binding free energy” value came to 0.15 kcal/mol.

Regarding AGCGTCACGTGGAGTG, the “relative binding free energy” value came out at 0.18 kcal/mol. Consider TAATGCACGTGTATTA, for which the “relative binding free energy” value was -0.1 kcal/mol. Next, GATGTCACGTGTGGGG: 0.27 kcal/mol; CGTGGCACGTGACTGG: -0.11 kcal/mol. Regarding TTGTCCACGTGTCATG, the “relative binding free energy” value amounted to 0.09 kcal/mol. Next, ATGTTCACGTGAACGG: 0.37 kcal/mol; CCGGGCACGTGTAGTT: 0.08 kcal/mol; TGTAGCACGTGGGTTC: -0.13 kcal/mol. Take AGGATCACGTGAATTG: the “relative binding free energy” value is 0.23 kcal/mol.

Regarding TTCGGCACGTGGTCAG, the “relative binding free energy” value is -0.29 kcal/mol. Take TTTCGCACGTGTTCTG: the “relative binding free energy” value is -0.01 kcal/mol. With TGTGTCACGTGGAACT, the “relative binding free energy” value came out at 0.31 kcal/mol. For CTTTGCACGTGGTTTA the value was -0.13 kcal/mol; for GGCGGCACGTGTGACG, 0.01 kcal/mol. Next, ACTTACACGTGTGGGA: 0.32 kcal/mol; AATCTCACGTGGGTTA: 0.12 kcal/mol; AGGTTCACGTGTTATT: 0.31 kcal/mol.

Consider ACCGTCACGTGGGGGT, for which the “relative binding free energy” value was -0.04 kcal/mol. Consider GGGGCCACGTGGTTGA, for which the “relative binding free energy” value is -0.17 kcal/mol.

As to ACGTGCACGTGGGGAA, the “relative binding free energy” value is -0.14 kcal/mol. Turning to AGCGGCACGTGGTGGA, the “relative binding free energy” value is -0.13 kcal/mol. For TTTTGCACGTGAGATG the value was 0.16 kcal/mol.

On to TTCGTCACGTGTTCTT, for which the “relative binding free energy” value stood at 0.08 kcal/mol. For CTGGACACGTGTTTAG, the “relative binding free energy” value came out at 0.01 kcal/mol. Next, TATGGCACGTGCTTTT: -0.02 kcal/mol. With GGGGGCACGTGAATGT, the “relative binding free energy” value turned out to be 0.19 kcal/mol. Next, ATTTCCACGTGTTGTG: -0.02 kcal/mol. Next, AAGGTCACGTGACTGT: 0.39 kcal/mol. For AGTAACACGTGAAAGG the value was 0.29 kcal/mol; for TTTTACACGTGCTTAT, -0.01 kcal/mol.

In the case of TTAGGCACGTGCTATG, the “relative binding free energy” value is -0.12 kcal/mol. Next, TCTGACACGTGTTGTT: 0.22 kcal/mol; ATTGGCACGTGTCGGC: -0.06 kcal/mol; GGGAGCACGTGAATGG: 0.14 kcal/mol. For TTTAGCACGTGATCGA the value was 0.08 kcal/mol. For ATGGACACGTGGTCGT the value was -0.1 kcal/mol; for CGTGTCACGTGAAAGG, 0.15 kcal/mol; for TAGCTCACGTGGCTTT, 0.35 kcal/mol. For GTTGTCACGTGTATGA, the “relative binding free energy” value is 0.15 kcal/mol. Next, CAAAACACGTGTGGGG: 0.14 kcal/mol; CGGTACACGTGTTGGC: 0.21 kcal/mol. Next, CAGCTCACGTGTGGGG: 0.13 kcal/mol; ACAGGCACGTGGGGGG: -0.26 kcal/mol. Consider TTGGCCACGTGGGCAT, for which the “relative binding free energy” value is -0.24 kcal/mol. Turning to CGGGTCACGTGGAATT, the “relative binding free energy” value is 0.2 kcal/mol. Regarding GCTAGCACGTGGGTGG, the “relative binding free energy” value was -0.21 kcal/mol. For AGAGTCACGTGAGCGT the value was 0.23 kcal/mol; for TTGGCCACGTGTTGTC, 0.03 kcal/mol. Consider GTGGACACGTGTTGAA, for which the “relative binding free energy” value was determined as 0.09 kcal/mol. For TTCGACACGTGATGTA the value was 0.14 kcal/mol; for TATCGCACGTGTTGGT, -0.07 kcal/mol; for CGGACCACGTGGGGGT, -0.27 kcal/mol. For TGTAACACGTGATGTG the value was 0.19 kcal/mol; for AGGTTCACGTGGCTTA, 0.15 kcal/mol; for GGTGTCACGTGAAGGC, 0.49 kcal/mol. For GGGTACACGTGTATAT the value was 0.09 kcal/mol; for GTCAACACGTGATGTG, 0.32 kcal/mol. Consider TAAAGCACGTGATTTG, for which the “relative binding free energy” value is -0.02 kcal/mol.

As for GGAGACACGTGATATG, the “relative binding free energy” value was found to be 0.16 kcal/mol. For the sequence TGCAGCACGTGAGGTA, the “relative binding free energy” value was 0.02 kcal/mol. In the case of AAGGTCACGTGATGAT, the “relative binding free energy” value worked out at 0.25 kcal/mol.

With AGCTTCACGTGTTATT, the “relative binding free energy” value amounted to 0.07 kcal/mol. For CGGGGCACGTGTAAAG the value was -0.04 kcal/mol. Next, GTATGCACGTGGTAAA: 0.04 kcal/mol; GAATACACGTGAGGTG: 0.29 kcal/mol; TTCGGCACGTGGATAA: 0.14 kcal/mol.

In the case of GTCAGCACGTGAGGTT, the “relative binding free energy” value turned out to be 0.13 kcal/mol.

As to TCGGACACGTGGTGTC, the “relative binding free energy” value was 0 kcal/mol.

For the sequence AGGGTCACGTGTTTGT, the “relative binding free energy” value came out at 0.13 kcal/mol. As for GGATGCACGTGGTCAG, the “relative binding free energy” value was -0.22 kcal/mol. On to AAGCGCACGTGTGTGA, for which the “relative binding free energy” value is -0.1 kcal/mol. Next, GGGGCCACGTGGACGT: -0.11 kcal/mol. For TATGGCACGTGTGTAT, the “relative binding free energy” value is -0.08 kcal/mol.

Consider GAAGGCACGTGTCGTG, for which the “relative binding free energy” value is 0.07 kcal/mol. For AAATTCACGTGGGGAA the value was 0.18 kcal/mol. For TTTTCCACGTGTTCTA the value was 0.18 kcal/mol; for TTGGACACGTGGCATG, 0.02 kcal/mol.

Turning to GTAAACACGTGATGGG, the “relative binding free energy” value came to 0.26 kcal/mol.

Turning to TTGTACACGTGTGGGA, the “relative binding free energy” value came out at 0.21 kcal/mol. Next, TTTTTCACGTGGATAT: 0.25 kcal/mol.

In the case of TTGTTCACGTGAAGTG, the “relative binding free energy” value was determined as 0.38 kcal/mol.

Consider TGAAGCACGTGGGAAT, for which the “relative binding free energy” value is -0.15 kcal/mol. For TTAGTCACGTGTGTCT the value was 0.17 kcal/mol; for TGGAGCACGTGGGCGG, -0.18 kcal/mol; for TGGGTCACGTGGTGAC, 0.09 kcal/mol. Regarding AATATCACGTGGATTG, the “relative binding free energy” value came to 0.17 kcal/mol. Next, AGCAGCACGTGTCGGG: 0 kcal/mol; CGAGGCACGTGTAGTA: -0.14 kcal/mol. Next, ATGGGCACGTGAGGGG: 0.21 kcal/mol. For the sequence TGGTACACGTGGCGAT, the “relative binding free energy” value is -0.02 kcal/mol.

With TGGACCACGTGGTGGC, the “relative binding free energy” value is -0.09 kcal/mol.

As for TAAGTCACGTGGGGCG, the “relative binding free energy” value was determined as 0.03 kcal/mol. For TTCGGCACGTGGTTGC the value was -0.05 kcal/mol.

As for GGTGGCACGTGGAAAA, the “relative binding free energy” value turned out to be 0.2 kcal/mol.

AGCATCACGTGGTTTG: the “relative binding free energy” value amounted to 0.24 kcal/mol. For TGAAGCACGTGGGGTC the value was -0.28 kcal/mol; for GGAATCACGTGCGGGT, 0.16 kcal/mol. Next, TGTCGCACGTGTGAGG: 0.05 kcal/mol. For TGGTTCACGTGGAGTT the value was 0.26 kcal/mol; for ATGGACACGTGTGGTA, 0.05 kcal/mol. For the sequence TTGAGCACGTGCTGTG, the “relative binding free energy” value was -0.14 kcal/mol. For the sequence TCAAGCACGTGTTAGG, the “relative binding free energy” value is -0.14 kcal/mol. For the sequence GGTGGCACGTGATTAA, the “relative binding free energy” value was 0.03 kcal/mol.

Regarding CTAGTCACGTGGGAGT, the “relative binding free energy” value was 0 kcal/mol. Next, TTGGGCACGTGGAGGG: -0.03 kcal/mol; TTATGCACGTGTTTTT: 0.05 kcal/mol. Next, TTGGACACGTGGTGCA: -0.1 kcal/mol; CGCATCACGTGTTGTT: 0.14 kcal/mol; TTTCGCACGTGGGTGC: -0.12 kcal/mol. For TTTTACACGTGTCTCT the value was 0.13 kcal/mol; for GGAACCACGTGGGGGA, -0.16 kcal/mol; for GGATGCACGTGATTAT, 0.16 kcal/mol. With GTGACCACGTGTGTAT, the “relative binding free energy” value is 0.13 kcal/mol.

Turning to GAGTGCACGTGAAATT, the “relative binding free energy” value came to 0.32 kcal/mol.
